The other results are listed elsewhere or left out. At the low end of the ranking, values are background and their order means little.
These sequences were tested against SIX1-Q177R homeodomain (UniProt Q15475) (assay: universal protein binding microarray). Conditions: Universal all-10-mer PBM (8x60K, AMADID 030236), 300 nM GST-tagged protein, Alexa Fluor 488 anti-GST; buffer, salt, pH and temperature not stated; high values mean tight binding; most listed sequences are background and not binding sites; double strand, one strand shown.

Sequence	binding signal [E-score]
GCGCTCAA	-0.194
AGATGACC	-0.156
AGAGACCG	-0.0974
GCGGAAGA	-0.169
ACCACGAT	0.0455
AGTGTCAC	0.45
AACACACT	0.276
GGATCTAC	-0.00587
GTGCAAGA	-0.0419
AATTGTAA	-0.148
GTCTAAAC	0.0568
CCCGGCGC	0.0102
ACTACAGT	0.0348
ACCACAAC	-0.0159
GACATTGA	-0.245
CTCTATTA	-0.0792
AGTACCAT	0.0467
ATCTTATG	-0.231
AGCCCACG	-0.113
CTTGTGCA	-0.0895
AATGATCA	-0.288
CTCCCTGC	-0.0448
CTTCGCGC	-0.101
CGTTGAAC	0.0187
GAAACTAC	-0.0761

Sequence	binding signal [E-score]
ATACTCAT	0.0568
AAAGGGTT	-0.155
CGTAACGC	0.0201
CGCACCCG	0.245
GAGTTTGA	-0.0457
GTGAACAC	0.412
CCGCAGTC	-0.0915
GGTTGGAA	-0.0119
CGCGCATC	-0.208
GGCCTACA	-0.0202
TGCGCCAA	-0.178
CATATCCG	-0.0981
CACTATGC	0.245
AGACGGCG	-0.192
CGGTTTTC	-0.173
ATAGAGTC	0.202
CAAAACCC	0.0705
TGATTTAA	-0.151
ATCGCACG	-0.00112
AAGCTTGA	-0.156
AGTGAACT	-0.0967
CACCTGCG	0.26
GGCCTTTA	-0.131
ACGCTAAG	0.11
GCGTGCGA	0.000145

Sequence	binding signal [E-score]
GCGAGCCC	0.0446
ATACCTGA	0.125
AAACCGAG	-0.122
CTAGACTA	-0.15
GCGAGTTA	-0.0168
CCAAGAAA	-0.191
AGGCTGCC	-0.297
CCATAAGC	-0.0949
AATTCTAC	-0.0345
GCTGTTTA	-0.213
CAGCACCC	0.188
CCCTTCTA	0.177
TACCGTCA	0.0795
CCGTTCAA	-0.0309
GATTGTGC	-0.195
GACCCTCC	0.0835
CACGTACC	0.115
AGAACCGC	-0.0673
CAACCACG	0.155
CCTATGTA	0.0459
ACCAACGC	0.246
AATACCCA	0.0414
ACCCCGGG	0.302
AACCAAAC	-0.216
GTTAGGAA	0.0909

Sequence	binding signal [E-score]
GAAAGGCC	-0.0642
ATCATATC	0.0056
TCATTGGA	-0.0548
AGATATAA	-0.0438
CTGGCCGC	-0.201
ATTCGCCA	-0.0783
CACCATCA	0.231
CACACACC	0.389
GAATGGAA	-0.0114
TCGTGCAA	-0.0122
GGATTGAC	-0.0983
CTAACCGC	-0.0352
CCCTCGAA	0.156
AAATACTC	-0.0157
AACCCTCG	0.0629
CTAAAGTA	-0.0598
AAGCGGTA	-0.00553
GACGTGAA	-0.215
GGTCAGTA	0.0563
CACGCTCG	0.242
ACCCGCAA	0.0678
ACACCCCA	0.47
AATACCAT	-0.0412
CTTAAAAC	-0.198
CGCAATAG	0.00494

Sequence	binding signal [E-score]
AATCCGGC	0.0215
AGGAAGGA	-0.0285
CGCTTATA	-0.0753
CAGGCACA	-0.0072
ACGGGCAT	-0.0162
CCAAATAC	-0.0405
AAAACTTG	-0.156
GGGACGCA	-0.186
GGGATAAA	0.0743
AAAAAATG	-0.26
GCTCTATA	-0.218
ACCGTCTA	0.0486
ACCAAATA	0.105
ACGCAAGC	-0.136
GGGTGGCA	0.138
CCAAAGCG	0.0445
CGGAAATA	-0.195
CATTAGGC	-0.0724
ATAGGTGC	0.193
AGGCGCAT	0.136
CACTGCTC	0.104
TGGCGCCA	-0.281
ATTTACGG	-0.149
CGATCGTC	-0.0471
CTAGATCA	9e-05

Sequence	binding signal [E-score]
AAAGCGCA	0.0173
AAAGCTGA	-0.0855
AGGATAAA	-0.0507
AGTTTAAC	0.143
GTCAGTCA	-0.105
GGGGGTCA	0.313
GCCAGGGC	-0.0808
CCAGCGCA	-0.0282
CGGGGTTC	0.201
GCACCCAC	0.194
CCATCCGC	0.0369
CAGTTATG	-0.107
CCGTGTCA	0.465
AACAAAAC	0.0341
ATGATTCA	-0.206
GAAAGCGA	-0.103
AAAGATAA	-0.163
ACTAAATC	-0.0692
AGGTCGAG	-0.0929
CGTCTGTA	0.0759
CGTAGCAA	-0.18
GATTCCAC	0.0456
CACTGCCC	0.101
TATGCGAA	-0.0244
CCGACTCA	-0.0958

Sequence	binding signal [E-score]
AAAATACC	-0.0354
GACTACTC	0.0198
GCGCTAAC	-0.0761
ACTCGTAT	0.0175
GTATGCTA	0.00895
CCGTTGAC	0.16
TCATACAA	-0.196
ATCTTCCC	0.0918
CGATGCAA	-0.131
CCGAATCA	-0.0877
GGGTCTGA	-0.0896
CCCCTCGC	0.169
CGGGCAAC	0.135
ACTCGTAA	0.0389
ATTTGACG	-0.0556
AGGCTTAC	-0.124
GCATATAA	0.0407
GAACTGCC	-0.325
CAAAGGAA	-0.0811
AGATTTTG	-0.163
CATATCCA	-0.0991
AGGAGCCA	-0.0678
TCAACAGA	-0.172
AATCTGGC	-0.207
CATGCCGC	-0.0895

Sequence	binding signal [E-score]
ACAGCTAC	0.0797
CAACCTTA	-0.106
ATTGCCTA	-0.0975
TCGACCAA	-0.071
CGGAGCTC	-0.0203
GCCGTGGA	-0.197
AGGACTGA	-0.129
GATCGCCC	0.0409
AACTCGTC	-0.0755
AACTGGTG	0.364
GGATCGCA	0.0478
ATGTAGAA	-0.0541
CCAACAGA	-0.016
GATCGCGA	-0.106
AGTTTTAG	-0.0868
CATAAAAG	-0.00804
GCTATTAA	-0.045
AACACCAT	0.457
CGTGTCCA	0.4
CCTGTGGC	-0.01
CCTGTGAA	-0.0773
CTCACCTC	-0.104
TCATAACA	0.23
GAATCATC	-0.0859
ACTCATTC	-0.0983

Sequence	binding signal [E-score]
ACGACCTC	0.193
GGTGGATA	0.156
ATTTGCGC	-0.163
GCTCTTCA	-0.147
CTAAAGAG	-0.0571
AGAAACGG	0.152
CAATGGCC	-0.256
GGAAAAGA	-0.287
GCGGTGTA	0.485
AGCAACAT	-0.173
CGCCCCTA	-0.0252
ATGATTGG	-0.181
CGGGCCAG	0.127
AACAAGCC	-0.214
CACGCAGA	0.137
CATTCCAG	-0.0941
CTGGGAAA	-0.0591
ACGCGATA	0.124
ATTGCTAC	-0.176
CCAATTAA	-0.0861
AGGGAGTG	0.163
CGCGCCGC	0.0029
AATGGTTA	-0.288
AAGGTACT	0.0685
GGACTTAC	-0.117

Sequence	binding signal [E-score]
AGGGTCGA	0.0871
ACTGAAAG	-0.0913
ATTTGGTG	0.26
AGTGTACG	0.407
GCTCACCA	-0.174
CTCATCAA	-0.224
CGAGCTGC	-0.0893
AGATTGAG	-0.174
AATCAGAG	-0.0609
ACCGCAGT	0.0687
CTGCACAA	-0.0171
ATTGGGAA	-0.257
TGAACGCA	-0.158
CTGCGACA	0.195
ACGGAGCA	0.0445
GCCTATCA	-0.0411
TCCGCGAA	0.126
GCGACAAC	-0.0776
AGGACCGG	-0.237
AACATGGT	0.0141
CAAGATAG	0.0837
ATTCTACC	0.0876
CGAACGAG	0.0669
CCGGGGGC	0.126
CGGTCGCC	-0.0949

Sequence	binding signal [E-score]
ATCTGGTA	0.091
GGCCTCAC	-0.065
AGGACGAT	-0.0369
CAAATGCA	-0.1
TCTGTACA	0.0322
AAAGGCAA	-0.2
CGTCGTCC	-0.185
AGTTTCAT	-0.131
ATGCCATC	-0.172
ACCAGTAC	0.151
AGATGTTC	-0.295
ATTGGGGA	0.168
ACGAACGC	-0.0636
CATATAGC	-0.0104
ACCTGTAA	-0.0835
AAGGCGCA	0.0219
ATTCGAAC	-0.0182
GACAGAGC	-0.176
CTTCTAAA	-0.142
GCACGCGC	-0.0284
GCCGGAAC	-0.0726
CCGCGTCC	-0.0369
GGCTGTCA	-0.229
AGAATACT	-0.0672
ACGGAAAC	0.0112

Sequence	binding signal [E-score]
AGTGCAGA	-0.128
AGTACGGC	0.0268
ATGCATCA	-0.236
GCCCCGCC	0.175
CCTCAGGC	-0.161
GGGCTGCA	-0.215
AACATAGA	-0.0792
TCCTTAGA	0.0278
ACAGGAAC	-0.0963
GTCGTGTA	0.438
GCTGACCA	-0.0425
GGCGAATA	-0.0499
GGCTCGGA	-0.119
ATCATTCC	-0.119
CAGTGCTC	0.0709
AACAAAGA	-0.142
AGTCTACC	-0.198
CAGCCCAA	-0.081
GGCCTCTA	-0.0796
GAGCACTC	0.0801
CCGCCCTA	0.0369
AATCCGCT	0.0295
TACCAACA	0.167
ACGCGGTG	0.334
AGCGGATA	-0.0232

Sequence	binding signal [E-score]
AGGCGTTC	-0.0898
CTCCCGAG	0.108
AGAAGCCC	-0.216
TGCCTTAA	-0.208
GTGGAGTA	0.29
AATAATAG	-0.13
CCCAATTA	0.0345
CCTGAGGC	-0.0265
AAAAGTTT	-0.138
GTTAGCGA	0.114
ACACTTCT	0.374
TCCCAGGA	-0.0813
TCTAGTCA	-0.124
TCGCGGCA	-0.05
ATAAGAAC	-0.112
CGAACGTA	-0.0625
AAGGCTCC	-0.175
AGGATTAC	0.0105
GCATAGCA	-0.144
TATGATAA	0.0472
TAAGCGCA	-0.229
CAAATAGC	-0.252
GGAATGCA	-0.185
GCACGGCA	-0.216
ATAAATAT	-0.119

Sequence	binding signal [E-score]
AGTTTATC	0.208
CTTGTATC	0.0319
AAAGGATT	-0.0878
ATAGAACC	-0.12
AACTGCGT	-0.0421
GCGATACC	0.311
ACGCTGGA	0.121
GTGGCACA	0.00358
ATTGTATC	-0.0445
CAAGCCCG	0.0225
AATTTACA	0.182
AGAACACT	0.344
GTGACCAA	-0.107
CTGTGTCA	0.256
AAGCCCAA	-0.0238
GGATATAA	-0.0376
GATATTAA	0.0648
ACTGTCCA	-0.0571
GGACGCCC	0.043

From article PMC10668032
